# Reference: article PMC4336329 (PLoS ONE, 2015)
# In all, about 310,000 compounds went through this assay and about 14,000 (4.5%) showed an effect of 50% or more. Effects have a minus sign here. Some of the results follow.
# Molecular target: human ether-à-go-go-related gene (hERG) potassium channel (human, UniProt Q12809)
# Assay: primary screen, population patch clamp on CHO cells stably expressing hERG
# 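Further: peak tail current of the secondary pulse compared with the same well before compound.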
# Chain of human ether-à-go-go-related gene (hERG) potassium channel (Q12809 whole entry, looked up): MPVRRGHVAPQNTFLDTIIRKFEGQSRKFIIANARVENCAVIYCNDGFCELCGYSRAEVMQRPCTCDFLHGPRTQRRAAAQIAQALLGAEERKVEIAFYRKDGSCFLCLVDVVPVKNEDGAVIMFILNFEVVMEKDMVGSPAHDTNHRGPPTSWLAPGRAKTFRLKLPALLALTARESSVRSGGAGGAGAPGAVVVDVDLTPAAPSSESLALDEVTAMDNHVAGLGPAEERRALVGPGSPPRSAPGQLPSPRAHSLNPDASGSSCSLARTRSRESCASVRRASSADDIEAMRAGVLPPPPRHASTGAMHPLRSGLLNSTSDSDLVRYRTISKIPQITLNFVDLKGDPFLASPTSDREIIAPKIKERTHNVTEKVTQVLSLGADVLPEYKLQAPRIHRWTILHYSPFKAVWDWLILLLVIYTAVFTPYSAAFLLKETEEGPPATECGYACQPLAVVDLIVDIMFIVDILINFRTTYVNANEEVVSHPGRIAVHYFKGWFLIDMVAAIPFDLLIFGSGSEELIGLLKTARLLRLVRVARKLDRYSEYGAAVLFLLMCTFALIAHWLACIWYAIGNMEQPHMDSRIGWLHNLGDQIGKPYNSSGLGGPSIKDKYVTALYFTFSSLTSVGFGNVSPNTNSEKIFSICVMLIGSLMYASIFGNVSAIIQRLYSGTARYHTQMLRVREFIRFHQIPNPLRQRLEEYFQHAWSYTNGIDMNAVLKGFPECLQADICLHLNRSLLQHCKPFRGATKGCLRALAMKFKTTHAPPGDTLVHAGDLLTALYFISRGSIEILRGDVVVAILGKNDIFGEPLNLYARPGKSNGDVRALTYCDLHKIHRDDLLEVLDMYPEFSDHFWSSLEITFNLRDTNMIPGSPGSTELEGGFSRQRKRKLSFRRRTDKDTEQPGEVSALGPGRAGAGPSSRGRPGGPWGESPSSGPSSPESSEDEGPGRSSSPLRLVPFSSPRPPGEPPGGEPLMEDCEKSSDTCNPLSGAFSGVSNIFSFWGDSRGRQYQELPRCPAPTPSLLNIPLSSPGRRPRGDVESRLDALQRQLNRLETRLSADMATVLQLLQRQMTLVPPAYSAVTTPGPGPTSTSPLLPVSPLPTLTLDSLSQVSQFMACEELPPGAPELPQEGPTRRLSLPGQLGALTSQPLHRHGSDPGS
row,Compound,"hERG current change (%, negative = inhibition) at 10uM [%]"
1,S=C(c1ccc2c(c1)OCO2)N1CCCC1,10.7
2,Cc1ccc(OCC(=O)NNC(=O)c2ccoc2C)c(Br)c1,9.16
3,CC(C)C[C@H](NC(=O)c1nc[nH]c1C(=O)N1CCN(C(=O)OC(C)(C)C)CC1)C(=O)OCc1ccccc1,-20.8
4,O=C(Nc1cccc(Cl)c1Cl)c1snnc1-c1ccccc1,7.74
5,O=C(NCCCN1CCCC1)c1ccc(CSCc2cccc(Cl)c2)o1,-61.8
6,COc1cccc(N2CCN(S(=O)(=O)c3cccc4nsnc34)CC2)c1,-10.6
7,O=C(N/N=C/C=C/c1cccc([N+](=O)[O-])c1)C(O)c1ccccc1 (centres unmarked),-3.57
8,COc1ccc(Br)c2c1C(=O)CC2,7.31
9,COc1ccc(OC)c(NS(=O)(=O)c2ccc3c(c2)n(C)c(=O)n3C)c1,-5.85
10,Cc1ccc(NC(=O)C2C(c3ccccc3)C=CC(c3ccccc3)C2C(=O)O)cc1 (centres unmarked),2.4
11,Cc1ccc(S(=O)(=O)N2CCN(C(=O)C3CCN(C(=O)c4ccc(F)cc4)CC3)CC2)c(C)c1,-55.7
12,Cn1cnnc1SCc1ccc(C#N)cc1,13.4
13,CCOC(=O)c1ccc(NC(=O)Nc2cc(C)on2)cc1,10.8
14,CC(=O)c1c(C)n(Cc2ccccc2)c2ccc(O)cc12,12.8
15,NC(=O)CSP(=O)(c1ccccc1)c1ccccc1,13.2
16,O=C(Nc1ccccc1Cl)c1cccc(NC(=O)c2cccs2)c1,-4.91
17,O=C(O)CCc1ccc(-c2cccs2)n1NC(=O)c1ccco1,1.1
18,Cc1ccc(NC(=O)CN2C(=O)C3CCCCN3C(=O)c3ccccc32)cc1 (centres unmarked),-3.57
19,COC(=O)c1ccc(COc2ccccc2/C=N/NS(=O)(=O)c2ccccc2)cc1,13.1
20,CC1CC(NC(=O)/C(C#N)=C/c2ccc[nH]2)CC(C)(C)C1 (centres unmarked),14.1
21,COC(=O)C1(c2ccccc2)NC(c2cccs2)C2C(=O)N(c3ccccc3)C(=O)C21 (centres unmarked),10.4
22,COc1ccc(C(=O)NCCSc2ccc(C)cc2)cc1,-11
23,CC(=O)Nc1ccc(S(=O)(=O)NCCc2cc3ccc(C)c(C)c3[nH]c2=O)cc1,-5.87
24,CCOC(=O)c1c(/N=C/c2ccc(C)cc2O)sc2c1CCC2,2.86
25,O=P(O)(O)Cc1ccccc1OP(=O)(c1ccccc1)c1ccccc1,7.99
26,CCN1C(=O)N[C@@H](c2ccc(Br)cc2)C(C(C)=O)=C1C,-3.11
27,Cc1cc(/C=N\O)c(C)n1-c1ccncc1,10.7

row,Compound,"hERG current change (%, negative = inhibition) at 10uM [%]"
1,COc1ccc(-c2nc(CS(=O)CC(=O)N3CCCC3)c(C)o2)cc1 (centres unmarked),1.4
2,CCCn1nc(NC(=O)C2CCCO2)c2cc3ccc(C)cc3nc21 (centres unmarked),-1.44
3,C#CCOCCOCCOCCNc1nc(N2CCN(C(=O)[C@H]([C@@H](C)CC)n3cc([C@@H](N)CO)nn3)CC2)nc(N2CCN(C(=O)[C@H](Cc3cc4ccccc4[nH]3)n3cc([C@@H](N)C(C)CC)nn3)CC2)n1.Cl (some centres unmarked),-19
4,CSc1cccc(NC(=O)C2(S(=O)(=O)c3ccc(C)cc3)CC2)c1,-30.7
5,Cc1cc(OCc2cc(C(=O)N(C)C3CCOC3)no2)cc(C)c1Cl (centres unmarked),-73.6
6,O=C(COc1ccc2ccccc2c1)N1CCN(C(=O)c2ccc([N+](=O)[O-])cc2)CC1,-76.5
7,COc1ccccc1NC(=O)CSc1nc2nc(C)cc(C)c2c(=O)[nH]1,4.82
8,CCN1C(=O)[C@H]2[C@@H](c3ccc(-c4ccc5c(c4)OCO5)c(OC)c3)N[C@@](CC(C)C)(C(=O)OC)[C@H]2C1=O.O=C(O)C(F)(F)F,0.96
9,CCCCCN=C(C)c1c(O)c2ccccc2oc1=O,-9.7
10,COc1cc(C2SCCS2)cc(Br)c1Oc1ncccc1[N+](=O)[O-],16.1
11,NC(Cc1c[nH]c2ccc(OCc3ccccc3)cc12)C(=O)O (centres unmarked),14.5
12,COc1cc2c(cc1OC)CN(C(=S)Nc1c(C)cccc1C)CC2,1.44
13,COc1ccc(NC(=O)c2cccc(N3C(=O)C4C5C=CC(C5)C4C3=O)c2)cc1Cl (centres unmarked),2.2
14,COc1ccc(N2CCN(S(=O)(=O)c3c(C)noc3/C=C/N(C)C)CC2)cc1,-0.914
15,Cc1ccc(CC(=O)Nc2ccncc2)cc1,6.93
16,C/C(=N\NC(=O)c1ccc(CSc2nncn2C)cc1)c1ccc(C#N)cc1,-26
17,O=C(COc1ccc(S(=O)(=O)NCc2ccccc2)cc1Cl)N1CCOCC1,18.1
18,Cc1cc2nc(/C(C#N)=C/c3ccncc3)[nH]c2cc1C,-16.9
19,CC(=O)NC12CC3CC(C1)CC(C(=O)Oc1ccc(N(C)S(=O)(=O)c4cc(C)ccc4C)cc1)(C3)C2,10.5
20,COc1ccc2c(c1)CCc1c(C(=O)Nc3ccn(Cc4ccc(C)cc4)n3)noc1-2,11.4
21,Cc1nc(N2CCCCC2)c2c(-c3cccs3)csc2n1,4.13
22,O=C1CCC(C(=O)N(Cc2ccco2)C2(C(=O)NC3CCCC3)CCCCC2)N1 (centres unmarked),13.4
23,COCCOC(=O)C1=C(C)OC(N)=C(C(=O)OC)C12C(=O)Nc1ccccc12 (centres unmarked),-1.39
24,CN1C(C)(C)CC(NC(=O)c2ccco2)CC1(C)C,4.08
25,c1ccc(OCCCn2nnc(-c3ccc(N4CCOCC4)cc3)n2)cc1,15.4
26,CC(C)[C@H](NC(=O)N1CCn2c1nc1ccccc12)C(=O)N[C@H](C(=O)O)c1ccccc1,11.9
